We go through 5 molecules from patent US20190062399A1 (Bristol-Myers Squibb, published 2019).

T1: B7-1Ig (CD80-Ig fusion protein) (UniProt P33681 35-242, limits assumed)
T1 construct: also called B7Ig; not shown: immunoglobulin (Ig) portion
T1 sequence (looked up): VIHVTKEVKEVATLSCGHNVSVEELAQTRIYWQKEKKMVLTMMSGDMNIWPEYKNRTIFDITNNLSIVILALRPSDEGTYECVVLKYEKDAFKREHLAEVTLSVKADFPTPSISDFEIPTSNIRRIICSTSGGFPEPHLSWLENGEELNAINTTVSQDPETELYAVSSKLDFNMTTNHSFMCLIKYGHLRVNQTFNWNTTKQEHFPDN

B1: CTLA4-Ig tetramer (purified from HIC cleaning peak) (Fc fusion)
chain: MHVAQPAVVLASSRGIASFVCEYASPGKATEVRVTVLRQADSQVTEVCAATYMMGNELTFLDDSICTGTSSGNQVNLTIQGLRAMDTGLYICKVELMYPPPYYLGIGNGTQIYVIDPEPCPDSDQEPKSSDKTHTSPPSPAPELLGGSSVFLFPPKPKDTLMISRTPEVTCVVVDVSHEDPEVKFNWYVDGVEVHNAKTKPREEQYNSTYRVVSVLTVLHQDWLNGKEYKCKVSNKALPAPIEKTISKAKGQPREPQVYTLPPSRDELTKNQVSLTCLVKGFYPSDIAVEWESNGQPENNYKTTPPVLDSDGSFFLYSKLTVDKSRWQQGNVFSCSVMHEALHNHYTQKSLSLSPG
modifications: glycosylated; lower sialic acid than the dimer
notes: Two covalent dimers associated non-covalently; Isolated by Protein A chromatography and preparative SEC of the HIC cleaning peak
B2: Dimerized tetramer (CTLA4-Ig tetramer converted to dimer by guanidine treatment) (Fc fusion)
chain: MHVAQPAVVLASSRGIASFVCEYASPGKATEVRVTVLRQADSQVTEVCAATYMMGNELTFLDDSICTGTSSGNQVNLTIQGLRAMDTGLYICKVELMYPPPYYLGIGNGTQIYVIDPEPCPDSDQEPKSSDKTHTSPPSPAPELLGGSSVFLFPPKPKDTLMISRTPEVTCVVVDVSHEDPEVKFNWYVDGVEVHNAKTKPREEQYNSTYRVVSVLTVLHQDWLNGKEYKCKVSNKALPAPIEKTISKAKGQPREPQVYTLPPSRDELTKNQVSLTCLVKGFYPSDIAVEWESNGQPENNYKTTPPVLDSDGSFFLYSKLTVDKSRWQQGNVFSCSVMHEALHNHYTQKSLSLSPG
modifications: glycosylated
notes: Tetramer from the HIC cleaning peak, treated with guanidine and dialysed into phosphate buffer; also called guanidine-treated CTLA4-Ig dimer; tetramer which was disaggregated
B3: CTLA4-Ig dimer (CTLA4-Ig dimer standard / CTLA4-Ig reference material) (Fc fusion)
chain: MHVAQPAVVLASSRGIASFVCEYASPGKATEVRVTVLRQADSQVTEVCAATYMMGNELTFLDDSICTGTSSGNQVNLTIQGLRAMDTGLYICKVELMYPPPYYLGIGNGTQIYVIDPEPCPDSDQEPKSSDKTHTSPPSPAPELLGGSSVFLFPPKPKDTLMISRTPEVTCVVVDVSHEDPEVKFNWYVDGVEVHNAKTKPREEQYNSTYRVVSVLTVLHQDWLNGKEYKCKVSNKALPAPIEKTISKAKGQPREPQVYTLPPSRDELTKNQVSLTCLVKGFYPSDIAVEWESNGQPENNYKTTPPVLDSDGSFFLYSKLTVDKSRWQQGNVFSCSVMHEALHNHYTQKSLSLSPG
modifications: glycosylated: N-linked at Asn102, Asn134, Asn233 and O-linked at Ser155/156, Ser165 (numbering of SEQ ID NO:2)
notes: also called CTLA4-Ig material; CLTA4-Ig dimer standard
B4: CTLA4-Ig dimer purified from the HIC cleaning peak (Fc fusion)
chain: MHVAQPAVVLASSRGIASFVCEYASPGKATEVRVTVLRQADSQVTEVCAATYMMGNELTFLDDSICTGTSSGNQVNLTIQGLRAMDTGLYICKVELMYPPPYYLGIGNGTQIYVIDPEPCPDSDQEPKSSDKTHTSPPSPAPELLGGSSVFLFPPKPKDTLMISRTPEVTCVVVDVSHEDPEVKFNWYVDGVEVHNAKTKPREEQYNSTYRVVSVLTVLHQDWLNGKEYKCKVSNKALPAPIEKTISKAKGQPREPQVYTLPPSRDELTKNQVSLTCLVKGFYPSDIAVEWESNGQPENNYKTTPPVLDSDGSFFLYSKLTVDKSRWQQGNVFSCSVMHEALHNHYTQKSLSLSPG
modifications: glycosylated; sialic acid content low compared to CTLA4-Ig dimer
notes: Same polypeptide as m1, but a separate preparation (SEC fraction of the Protein A eluate of the HIC cleaning peak); also called purified dimer
B5: CTLA4-Ig hexamer (hexamer/multimer fraction of HIC cleaning peak) (Fc fusion)
chain: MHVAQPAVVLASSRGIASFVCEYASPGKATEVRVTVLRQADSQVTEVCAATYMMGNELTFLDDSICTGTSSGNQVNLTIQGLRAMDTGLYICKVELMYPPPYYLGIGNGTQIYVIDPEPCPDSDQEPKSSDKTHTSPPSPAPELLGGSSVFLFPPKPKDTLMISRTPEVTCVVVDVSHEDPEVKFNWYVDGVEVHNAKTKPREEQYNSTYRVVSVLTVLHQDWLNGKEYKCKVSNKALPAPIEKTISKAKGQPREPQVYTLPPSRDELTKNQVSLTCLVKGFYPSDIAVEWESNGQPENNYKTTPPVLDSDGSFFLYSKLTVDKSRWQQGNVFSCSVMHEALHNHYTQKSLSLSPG
modifications: glycosylated

The first assay addresses T1, B7-1Ig (CD80-Ig fusion protein). The experiment in a line: SPR kinetics (Biacore), 75-200 nM analyte over B7-1Ig chip (694 RU). Here is the method:
In Table 11, sample concentrations of 75-200 nM were tested on B7-1Ig chip (694 RU).
In general terms: SPR reads the build-up and loss of mass on a sensor chip optically.
One may read the Kd as the free concentration of one partner at which half of the binding sites on the other are occupied at equilibrium, for simple one-to-one binding. High values mean a looser complex, low ones a tighter complex. For orientation: koff means the first-order rate constant of dissociation. A low value points to a long-lived complex. For orientation: kon means a measure of how fast the partners come together. The low end stands for slow association, the high end for fast association. For B1, the Ka was determined as 2.04e+07 M⁻¹, binding was put at a Kd of 48.9 nM, the koff was determined as 0.00807 s⁻¹ and the kon came to 165000 M⁻¹ s⁻¹.

B2 displayed a Ka of 3.16e+07 M⁻¹, a Kd of 31.7 nM, a koff of 0.00988 s⁻¹ and an on-rate (kon) of 312000 M⁻¹ s⁻¹.

Take B3: the Ka came to 4.18e+07 M⁻¹, binding was put at a Kd of 23.9 nM and the on-rate (kon) was 403000 M⁻¹ s⁻¹.

Molecule B4 registered a Ka of 2.59e+07 M⁻¹, a Kd of 38.7 nM, a koff of 0.00588 s⁻¹ and a kon of 152000 M⁻¹ s⁻¹.

B5 displayed a Ka of 1.25e+07 M⁻¹, a Kd of 79.9 nM, a koff of 0.0123 s⁻¹ and a kon of 154000 M⁻¹ s⁻¹.

A further assay shares this target. The experiment in a line: SPR (Biacore), mass transfer limited conditions on high-density B7-1Ig chip.
As for B1, the “initial binding rate relative to CTLA4-Ig dimer” value was ~0.8 fold of the dimer's rate.
